Measured values as given in PubChem BioAssay AID588453 (National Center for Advancing Translational Sciences (NCATS), 2011).
Where “and” joins values, the source holds several entries; their conditions need not be identical. Equal entries are not always repeated. Out of some 390,000 compounds screened, about 4,000 (1%) were called active. Inconclusive means that the source gave no clear call. Such entries were picked first, then a sample of the others. Calls come from the whole dose curve; as a rule, active = well fitted inhibition curve with a large enough effect; inconclusive = small, poorly fitted or top-dose-only effect; inactive = no such curve, though single readings can be large or run the other way. A potency beside an inconclusive call is a rough fit, not a confirmed value.

Biological target: Thioredoxin reductase 1, cytoplasmic (Rattus norvegicus) (UniProt O89049)
Chain of UniProt O89049 (O89049 whole entry, looked up): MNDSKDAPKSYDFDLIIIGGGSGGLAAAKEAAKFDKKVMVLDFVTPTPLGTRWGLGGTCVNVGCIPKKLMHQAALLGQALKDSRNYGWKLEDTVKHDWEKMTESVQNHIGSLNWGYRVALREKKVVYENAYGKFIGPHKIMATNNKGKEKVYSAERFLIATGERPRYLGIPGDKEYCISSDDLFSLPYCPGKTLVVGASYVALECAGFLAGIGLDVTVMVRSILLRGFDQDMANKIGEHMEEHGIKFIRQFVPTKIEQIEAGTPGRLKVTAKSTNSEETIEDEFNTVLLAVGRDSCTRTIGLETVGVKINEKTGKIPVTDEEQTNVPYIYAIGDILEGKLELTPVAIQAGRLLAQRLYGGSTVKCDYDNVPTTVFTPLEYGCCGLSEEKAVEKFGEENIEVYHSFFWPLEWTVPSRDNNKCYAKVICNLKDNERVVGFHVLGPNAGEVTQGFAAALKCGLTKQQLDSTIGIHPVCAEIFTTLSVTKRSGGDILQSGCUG
Test: qHTS Assay for Inhibitors of Mammalian Selenoprotein Thioredoxin Reductase 1 (TrxR1): qHTS; note: nearly all actives have a fitted effect of over 65% in size
Settings: recombinant rTrxR1, NADPH fluorescence consumption, selenite substrate; series mostly up to 114 µM
Procedure, shortened: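 Rat TrxR1 (90 nM in the dispensed reagent) was pre-reduced with 400 uM NADPH for 5 min at room temperature, then incubated with compound for 15 min. After 400 uM selenite was added, NADPH fluorescence (Ex 340/Em 450 nm) was followed for 8 min.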
Potency is the fitted concentration of half-maximal effect; tags give direction and shape of the fitted curve.

Structure (SMILES) | Potency
CCN(CC)c1ccc2nc3c(=O)n(C)c(=O)n(C)c3nc2c1 | inactive
CCOC(=O)C(=Cc1ccc(Br)cc1)C(=O)OCC | active: 25.1 µM
C#CCOCCOCCOCCNc1nc(N2CCOCC2)nc(N2CCN(C(=O)[C@H](CCC(=O)O)n3cc(C(N)[C@H](C)CC)nn3)CC2)n1 (stereo partly specified) | inconclusive: 79.4 µM [inhibitor, single point]
O=C(C[n+]1cccc(NC(=O)c2ccccc2)c1)c1ccccc1 | inconclusive: 3.16 µM [inhibitor, partial curve, poor fit]
CC1CCCC(C)N1S(=O)(=O)c1ccc(NC(=O)c2ccccc2C(=O)N2CCOCC2)cc1 (stereo unspecified) | inconclusive: 39.8 µM [inhibitor, partial curve, poor fit]
CCN(Cc1ccccc1)C(=O)Cn1c(=O)cc(C)c2c(C)nn(-c3cccc(F)c3)c21 | inactive
Cc1oc(-c2ccc(Cl)cc2)nc1CS(=O)CC(=O)NCc1ccccc1 (stereo unspecified) | inconclusive: 70.8 µM [inhibitor, partial curve, poor fit]
O=[N+]([O-])c1cc(C(F)(F)F)cc([N+](=O)[O-])c1N1CCCNCC1 | inconclusive: 79.4 µM [inhibitor, partial curve]
CCOC(=O)c1sc(NC(=O)/C=C/c2cnn(CC)c2C)c(C(=O)OCC)c1C | inconclusive: 79.4 µM [inhibitor, single point]
O=C(Cn1ncc(Cl)c(Cl)c1=O)N1CCN(Cc2ccccc2)CC1 | inconclusive: 20 µM [inhibitor, full curve]
CCOc1cccc(NC(=O)CSc2sc3c(O)cc(=O)[nH]c3c2C#N)c1 | inactive
CC1CCN(C(=O)C(C)OC(=O)CSc2ccc([N+](=O)[O-])cc2)CC1 (stereo unspecified) | inconclusive: 79.4 µM [inhibitor, single point]
COc1ccc(-c2[nH]ncc2Oc2ccccc2OC)c(O)c1 | inactive
Cc1n[nH]c(=O)c2c(NC(=O)CSc3nncs3)oc(C)c12 | inconclusive: 22.4 µM [inhibitor, partial curve, poor fit]
COc1ccc(C(=O)OCC(=O)NC(=O)NC(C)C)cc1OC | inconclusive: 31.6 µM [inhibitor, single point]
O=C1C(Nc2cccc(O)c2)=C(N2CCCCC2)C(=O)c2ccccc21 | inconclusive: 39.8 µM [inhibitor, full curve]
Oc1ccc(C2CNCc3sccc32)cc1O (stereo unspecified) | inconclusive: 13.4 µM [inhibitor, partial curve] and inconclusive: 1.19 µM [inhibitor, full curve]
Cc1noc2ncnc(N3CCCC3)c12 | inactive
CN1CCC/C1=C/C=C1\SC(=S)NC1=O | inconclusive: 28.2 µM [inhibitor, partial curve]
COc1cc(CCNC(=O)c2ccccc2NC(=O)C2=C(C)OCCS2)cc(OC)c1OC | inconclusive: 79.4 µM [inhibitor, single point]
COc1cc(C(=O)O/N=C2/C=C(C)C(=O)C=C2C)cc(OC)c1OC | inconclusive: 35.5 µM [inhibitor, partial curve]
Cc1ccnc(SCc2cc(=O)c(OC(=O)c3ccc(S(=O)(=O)N4CCCC4)cc3)co2)n1 | active: 28.2 µM

Structure (SMILES) | Potency
CNCCC=C1c2ccccc2C=Cc2ccccc21 | inactive
C=CCC[C@@H](Cc1ccc(F)cc1)C(=O)OC[C@@H](NC(=O)[C@@H](CC=C)CC(=O)N(CCO)Cc1ccccc1)c1ccccc1 | inactive
NCc1cc2c3c(c1)CCCN3CCC2 | inconclusive: 4.47 µM [inhibitor, full curve]
COc1ccc(C2/C=C\CN(S(=O)(=O)c3ccc(C)cc3)C(Cc3ccccc3)C(=O)N2Cc2ccc(F)cc2)cc1 (stereo unspecified) | inconclusive: 28.2 µM [inhibitor, single point]
COc1cccc(NC(=O)COC(=O)c2ccc(S(=O)(=O)NCc3ccco3)cc2)c1 | inconclusive: 39.8 µM [inhibitor, partial curve, poor fit]
CCOC(=O)NC(NC(=S)Nc1ccccc1[N+](=O)[O-])C(Cl)(Cl)Cl (stereo unspecified) | inconclusive: 8.91 µM [inhibitor, partial curve, poor fit]
CCOC(=O)c1sc(NC(=O)c2cc(-c3ccc(C)cc3)nc3ccccc23)c(C#N)c1C | inconclusive: 44.7 µM [inhibitor, partial curve]
Cc1cc(C)c(NC(=O)/C=C\C(=O)O)c([N+](=O)[O-])c1 | inconclusive: 70.8 µM [inhibitor, single point]
CCOc1ccccc1CNC(=O)CN1C(=O)c2cccnc2Oc2ccc(C)cc21 | inactive
C#CCOCCOCCOCCNc1nc(N2CCOCC2)nc(N2CCN(C(=O)[C@H](CCCCN)n3cc(CN)nn3)CC2)n1 | inconclusive: 50.1 µM [inhibitor, partial curve, poor fit]
COc1ccc(OC)c(NC(=O)N2CCC3(CC2)Oc2ccccc2C(=O)N3Cc2ccccc2F)c1 | inactive
Cc1ccc(S(=O)(=O)c2nnn3c2nc(NC2CCCCC2)c2sccc23)cc1C | inactive
CCOc1ccc(N2CC(=O)Nc3ccccc3NCC2=O)cc1 | inconclusive: 70.8 µM [inhibitor, single point]
Cc1ccc(Sc2cc(NCCCO)c([N+](=O)[O-])c3nonc23)cc1 | active: 12.6 µM
Cc1cccc(NCCC(=O)c2ccc([N+](=O)[O-])cc2)c1C | active: 4.47 µM
Cc1ccc(C2=NCCn3nc4cc([N+](=O)[O-])ccc4c32)cc1 | inconclusive: 39.8 µM [inhibitor, partial curve]
Cc1ccc(NC(=S)N2CCN(Cc3ccccc3)CC2)c(C)c1 | inconclusive: 56.2 µM [inhibitor, partial curve, poor fit]
Cc1ccccc1NC(=S)NC(=O)C1CCCCC1 | inconclusive: 50.1 µM [inhibitor, partial curve]
CCC1CCCCN1C(=O)CCc1nnc(Cc2c[nH]c3ccccc23)o1 (stereo unspecified) | inconclusive: 50.1 µM [inhibitor, partial curve, poor fit]
COc1ccc(CN(CCC(c2ccccc2)c2ccco2)C(=O)c2ccco2)cc1 (stereo unspecified) | inconclusive: 50.1 µM [inhibitor, partial curve]
COc1ccc(-c2ccc3oc(-c4ccsc4)cc(=O)c3c2)cn1 | inconclusive: 35.5 µM [inhibitor, single point]
COc1ccc(OC)c(CCNc2nc3cc(OC)c(OC)cc3c3nc(-c4cccnc4)nn23)c1 | inactive

Structure (SMILES) | Potency
CCCN1CCc2c(sc(NC(=S)NC(=O)c3ccccc3)c2C#N)C1 | inconclusive: 15.8 µM [inhibitor, full curve]
CCCCS/C(=C(/C#N)C(N)=O)c1cc2c([nH]1)CCCC2 | active: 44.7 µM
COC(=O)COc1c(/C=C\c2nc(O)c([N+](=O)[O-])c(=O)[nH]2)cccc1OC | inactive
C#CCOCCOCCOCCNc1nc(N2CCN(C(=O)[C@H](CCCCN)n3cc([C@@H](N)C(C)CC)nn3)CC2)nc(N2CCN(C(=O)[C@H](Cc3cc4ccccc4[nH]3)n3cc([C@@H](N)CC(C)C)nn3)CC2)n1 (stereo partly specified) | active: 25.1 µM
COC(=O)c1ccc(NC(=O)c2c(Br)cnn2C)cc1 | inconclusive: 39.8 µM [inhibitor, partial curve]
CSc1ccc(CCNC(=O)Cn2ncn3c(cc4ccccc43)c2=O)cc1 | inactive
O=S(=O)(c1cccnc1)N1CCn2cccc2C1c1ccccc1F (stereo unspecified) | inconclusive: 70.8 µM [inhibitor, single point]
Cc1cccc(CN2CCN(C(=O)CCl)CC2)c1 | active: 11.2 µM
O=C(NCc1ccco1)C1CC(=O)N(c2ccc(Cl)cc2)C1 (stereo unspecified) | inconclusive: 7.08 µM [inhibitor, single point]
CCn1c(C)c(CS(=O)(=O)c2ccccc2)[nH]c1=O | inconclusive: 0.355 µM [inhibitor, full curve, poor fit]
Cc1ccc(Nc2c([N+](=O)[O-])ccc3nonc23)c(C)c1 | inactive
O=C(CC1C(=O)NCCN1Cc1cccc(Oc2ccccc2)c1)NCCn1cccn1 (stereo unspecified) | inconclusive: 39.8 µM [inhibitor, single point]
CCC1(C)Cc2c(sc3nc(SC)nc(NCCN(C)C)c23)CO1 (stereo unspecified) | inactive
O=C(C[n+]1ccccc1Br)c1ccc(-c2ccccc2)cc1 | inconclusive: 79.4 µM [inhibitor, single point]
CCOc1ccc(NC(=O)C(c2ccccn2)N(C(=O)CCl)c2ccc(OC)cc2)cc1 (stereo unspecified) | inconclusive: 50.1 µM [inhibitor, partial curve]
COc1ccc(CNC(=O)COC(=O)c2cc3ccccc3cc2O)cc1OC | inconclusive: 89.1 µM [inhibitor, single point]
C#CCNC(=O)C1=C[C@@H](C2CCCCC2)C[C@@H](OCc2ccc(CO)cc2)O1 | inconclusive: 79.4 µM [inhibitor, partial curve, poor fit]
Cc1ccc(NC(=O)c2ccc(C)cc2)cc1 | inactive
Cc1cc(C)nc(SCc2cc(=O)c(OC(=O)c3cccc([N+](=O)[O-])c3)co2)n1 | inconclusive: 70.8 µM [inhibitor, single point]
O=C(O)CC1CCC(=C(Cl)Cl)C1 (stereo unspecified) | active: 1 µM
Cc1nc(SCC(=O)NCCc2ccccc2)nc(C)c1C | inconclusive: 39.8 µM [inhibitor, single point]
CCCCCC(=O)N/N=C/c1ccc([N+](=O)[O-])o1 | inconclusive: 7.94 µM [inhibitor, full curve, poor fit]
